In the supplement of paper PMC11417369:
± gives the standard deviation of the averaged measurements. The list shows a part of the results.

The sequences below were run on PfAP2-LT AP2 domain (GST-tagged) (assay: gcPBM binding intensity (ln(normalized median fluorescence intensity)); higher = stronger DNA binding).
Summary of the method: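 Binding intensity is defined as the maximum Masliner-normalised natural-log median intensity across replicate spots for either probe orientation. It was measured on an Agilent 4 × 180k array of primer-extended double-stranded 36-bp intergenic genomic probes and negative controls, to which GST-tagged P. falciparum DNA-binding domains made in E. coli were applied for 1 h in 1× PBS with 1% milk, 0.2 mg/ml BSA, 0.5% salmon testes DNA and 0.03% Triton X-100. Detection was by Alexa488 anti-GST antibody and scanning at 488 nm.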

“ATATATAACGTGCACACACACATTTACGTATGAATA [CACACA_site6948]” and “TATGACATATCCTGTAGTACAACGTATATATAAGAT [XGTACX_site1327]” are within error of each other in “gcPBM binding intensity (ln)” value: 9.51 ± 0.2 for the first, 9.03 ± 0.32 for the second.

First: CATAAAATATAAAACACACACACATATATATATATA [CACACA_site223]
Second: TTCCATGTAGGACATGCATGCAGTTTTTAAAATATT [TGCATGCA_site481]
The “gcPBM binding intensity (ln)” value of the first is higher: 10.1 ± 0.28 for the first, 8.82 ± 0.36 for the second.

“AAATTTTTTATTCTAATTAATATTTACACAATATAT [TGCATGCA_negctrl_site376]” and “TATTATATAAATATACGTACATATACTAACCTTTTA [XGTACX_site6317]” are within error of each other in “gcPBM binding intensity (ln)” value: 8.57 ± 0.39 for the first, 8.71 ± 0.53 for the second.

“TCAAAAAATATATTTGCACACTCAAAAAAAAAAAAA [CACACA_site860]” and “TACACACATTACAGATGTACATAAAATTAAAAAAAT [XGTACX_site1804]” are within error of each other in “gcPBM binding intensity (ln)” value: 8.71 ± 0.39 for the first, 9.13 ± 0.56 for the second.

“TATATATATATAAATACATGCATATAATTAATCCAT [TGCATGCA_site400]” and “CGACAAAAATTTTACAGTACAGTATAAACCTTTTTA [XGTACX_site290]” are within error of each other in “gcPBM binding intensity (ln)” value: 8.9 ± 0.28 for the first, 8.51 ± 0.42 for the second.

“TTTTTCACATTTCAGTGTACATTTTAATCATATATA [XGTACX_site915]” and “AAAAAAAAAAAAAAAAAAATATATTATATATATATA [XGTACX_negctrl_site467]” are within error of each other in “gcPBM binding intensity (ln)” value: 8.74 ± 0.44 for the first, 8.55 ± 0.52 for the second.

“ATTCCAAAAAAATCAAGTACTAATTTATTATATTAC [XGTACX_site3920]” and “ATTTTTTTTTTTTTTTTAAGACAAACTCTTAATTTA [CACACA_negctrl_site1389]” are within error of each other in “gcPBM binding intensity (ln)” value: 8.48 ± 0.4 for the first, 8.32 ± 0.52 for the second.

“TATTTTTTTAAGTGCAGTACACTTAATTTCCCCCAA [XGTACX_site7328]” and “TAAAAATAAAGAAAATGTACATAAATAAAAATAAAG [XGTACX_site2279]” are within error of each other in “gcPBM binding intensity (ln)” value: 8.59 ± 0.14 for the first, 8.88 ± 0.5 for the second.

“TATATATATACATAATGTACAAGAATTTGTATTGAA [XGTACX_site627]” and “ACAGGAGTATAACCTCGTACAAAATATATTTACCAT [XGTACX_site5805]” are within error of each other in “gcPBM binding intensity (ln)” value: 8.74 ± 0.45 for the first, 8.99 ± 0.49 for the second.

Compared with “CCTAGAAAAGCATATACACACGCGCAAAATAAAATT [CACACA_site4902]”, “TCTTTAAAAAAAAAAAAAAAAAATTCCAAATAAATA [TGCATGCA_negctrl_site538]” is lower in “gcPBM binding intensity (ln)” value: 9.32 ± 0.4 for the first, 7.83 ± 0.44 for the second.

“AAAAAGCAGGATTATACACACAAATATATATATGTT [CACACA_site1077]” and “TATATAAATTTAATAACACACATATAAAAATGAATT [CACACA_site2366]” are within error of each other in “gcPBM binding intensity (ln)” value: 9.07 ± 0.38 for the first, 8.76 ± 0.4 for the second.

“ATTTTTTTTTTTTTTATTCCCCTTTCGAAAAAAACC [CACACA_negctrl_site1139]” and “TTTTATAATAAGTATGTAAAAATTATATATATATAT [CACACA_negctrl_site711]” are within error of each other in “gcPBM binding intensity (ln)” value: 8.54 ± 0.44 for the first, 8.79 ± 0.2 for the second.
